# Experimental data reported in the supplement of paper PMC8728848.
# The other results are listed elsewhere or left out.
# B1: MAL-II (Maackia amurensis), P93248 (protein)
# chain: ATSNSKPTQVLLATFLTFFFLLLNNVNSSDELSFTINNFVPNEADLLFQGEASVSSTGVLQLTRVENGQPQQYSVGRALYAAPVRIWDNTTGSVASFSTSFTFVVKAPNPTITSDGLAFFLAPPDSQIPSGRVSKYLGLFNNSNSDSSNQIVAVEFDTYFGHSYDPWDPNYRHIGIDVNGIESIKTVQWDWINGGVAFATITYLAPNKTLIASLVYPSNQTSFIVAASVDLKEILPEWVRVGFSAATGYPTQVETHDVLSWSFTSTLEANSDAATENNVHIARYTA
# Columns and labels:
# Experiment in all cases: glycan array binding signal (z-score within array); higher = stronger binding
# Conditions in all cases: glycan notation: IUPAC condensed, linker removed
# [1] = target: Gal(a1-3)Gal(b1-3)GlcNAc(b1-2)Man
# How it was run: (§1)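 Negative Z-scores can be read as non-binding. The Z-score is calculated within each array and then averaged across arrays of one protein sequence at different concentrations or buffers and across linkers. Arrays, 3228 in all, were curated from the Consortium for Functional Glycomics database and kept only where the protein sequence was available.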
# [2] = target: Gal(a1-3)Gal(b1-3)GlcNAc(b1-2)Man(a1-3)[Gal(a1-3)Gal(b1-3)GlcNAc(b1-2)Man(a1-6)]Man(b1-4)GlcNAc(b1-4)GlcNAc
# How it was run: as §1
# [3] = target: Gal(a1-3)Gal(b1-3)GlcNAc(b1-3)GalNAc
# How it was run: as §1
# [4] = target: Gal(a1-3)Gal(b1-3)GlcNAc(b1-6)GalNAc
# How it was run: as §1
# [5] = target: Gal(a1-3)Gal(b1-3)[Fuc(a1-4)]GlcNAc(b1-2)Man(a1-3)[Gal(a1-3)Gal(b1-3)[Fuc(a1-4)]GlcNAc(b1-2)Man(a1-6)]Man(b1-4)GlcNAc(b1-4)GlcNAc
# How it was run: as §1
# Gal(a1-3)Gal(b1-4)Glc = target: Gal(a1-3)Gal(b1-4)Glc
# How it was run: as §1
# Gal(a1-3)Gal(b1-4)GlcNAc = target: Gal(a1-3)Gal(b1-4)GlcNAc
# How it was run: as §1
# [6] = target: Gal(a1-3)Gal(b1-4)GlcNAc(b1-2)Man
# How it was run: as §1
# [7] = target: Gal(a1-3)Gal(b1-4)GlcNAc(b1-2)Man(a1-3)[Gal(a1-3)Gal(b1-4)GlcNAc(b1-2)Man(a1-6)]Man(b1-4)GlcNAc(b1-4)GlcNAc
# How it was run: as §1
# [8] = target: Gal(a1-3)Gal(b1-4)GlcNAc(b1-3)GalNAc
# How it was run: as §1
# [9] = target: Gal(a1-3)Gal(b1-4)GlcNAc(b1-6)GalNAc
# How it was run: as §1
# [10] = target: Gal(a1-3)Gal(b1-4)[Fuc(a1-3)]GlcNAc
# How it was run: as §1
# [11] = target: Gal(a1-3)Gal(b1-4)[Fuc(a1-3)]GlcNAc(b1-2)Man(a1-3)[Gal(a1-3)Gal(b1-4)[Fuc(a1-3)]GlcNAc(b1-2)Man(a1-6)]Man(b1-4)GlcNAc(b1-4)GlcNAc
# How it was run: as §1
# Gal(a1-3)GalNAc = target: Gal(a1-3)GalNAc
# How it was run: as §1
# [12] = target: Gal(a1-3)[Gal(a1-4)]Gal(b1-4)GlcNAc
# How it was run: as §1
# [13] = target: Gal(a1-4)Gal(b1-3)GlcNAc(b1-2)Man(a1-3)[Gal(a1-4)Gal(b1-3)GlcNAc(b1-2)Man(a1-6)]Man(b1-4)GlcNAc(b1-4)GlcNAc
# How it was run: as §1
# Gal(a1-4)Gal(b1-4)Glc = target: Gal(a1-4)Gal(b1-4)Glc
# How it was run: as §1
# Gal(a1-4)Gal(b1-4)GlcNAc = target: Gal(a1-4)Gal(b1-4)GlcNAc
# How it was run: as §1
# [14] = target: Gal(a1-4)Gal(b1-4)GlcNAc(b1-2)Man(a1-3)[Gal(a1-4)Gal(b1-4)GlcNAc(b1-2)Man(a1-6)]Man(b1-4)GlcNAc(b1-4)GlcNAc
# How it was run: as §1
# [15] = target: Gal(a1-4)Gal(b1-4)GlcNAc(b1-3)Gal(b1-4)Glc
# How it was run: as §1
# Gal(a1-4)GlcNAc = target: Gal(a1-4)GlcNAc
# How it was run: as §1
# Gal(a1-6)Glc = target: Gal(a1-6)Glc
# How it was run: as §1
# Gal(b1-2)Gal = target: Gal(b1-2)Gal
# How it was run: as §1
# Gal(b1-3)Gal = target: Gal(b1-3)Gal
# How it was run: as §1
# Gal(b1-3)Gal(b1-4)GlcNAc = target: Gal(b1-3)Gal(b1-4)GlcNAc
# How it was run: as §1
# [16] = target: Gal(b1-3)Gal(b1-4)GlcNAc(b1-2)Man(a1-3)[Gal(b1-3)Gal(b1-4)GlcNAc(b1-2)Man(a1-6)]Man(b1-4)GlcNAc(b1-4)GlcNAc
# How it was run: as §1
# Gal(b1-3)GalNAc = target: Gal(b1-3)GalNAc
# How it was run: as §1
# [17] = target: Gal(b1-3)GalNAc(a1-3)[Fuc(a1-2)]Gal(b1-4)Glc
# How it was run: as §1
# [18] = target: Gal(b1-3)GalNAc(a1-3)[Fuc(a1-2)]Gal(b1-4)GlcNAc
# How it was run: as §1
# Gal(b1-3)GalNAc(b1-3)Gal = target: Gal(b1-3)GalNAc(b1-3)Gal
# How it was run: as §1
# [19] = target: Gal(b1-3)GalNAc(b1-3)Gal(a1-4)Gal(b1-4)Glc
# How it was run: as §1
# [20] = target: Gal(b1-3)GalNAc(b1-4)Gal(b1-4)Glc
# How it was run: as §1
# [21] = target: Gal(b1-3)GalNAc(b1-4)[Neu5Ac(a2-3)]Gal(b1-4)Glc
# How it was run: as §1
# Gal(b1-3)GlcNAc = target: Gal(b1-3)GlcNAc
# How it was run: as §1
# [22] = target: Gal(b1-3)GlcNAc(a1-3)Gal(b1-4)GlcNAc
# How it was run: as §1
# [23] = target: Gal(b1-3)GlcNAc(a1-6)Gal(b1-4)GlcNAc
# How it was run: as §1
# Gal(b1-3)GlcNAc(b1-2)Man = target: Gal(b1-3)GlcNAc(b1-2)Man
# How it was run: as §1
binder,measurement,setting,value
B1,glycan array binding signal (z-score),[1],-0.305
same,glycan array binding signal (z-score),[2],1.08
same,glycan array binding signal (z-score),[3],-0.197
same,glycan array binding signal (z-score),[4],-0.242
same,glycan array binding signal (z-score),[5],0.41
same,glycan array binding signal (z-score),Gal(a1-3)Gal(b1-4)Glc,-0.167
same,glycan array binding signal (z-score),Gal(a1-3)Gal(b1-4)GlcNAc,-0.135
same,glycan array binding signal (z-score),[6],-0.188
same,glycan array binding signal (z-score),[7],0.244
same,glycan array binding signal (z-score),[8],-0.181
same,glycan array binding signal (z-score),[9],-0.211
same,glycan array binding signal (z-score),[10],-0.193
same,glycan array binding signal (z-score),[11],-0.169
same,glycan array binding signal (z-score),Gal(a1-3)GalNAc,-0.218
same,glycan array binding signal (z-score),[12],-0.252
same,glycan array binding signal (z-score),[13],-0.08
same,glycan array binding signal (z-score),Gal(a1-4)Gal(b1-4)Glc,-0.133
same,glycan array binding signal (z-score),Gal(a1-4)Gal(b1-4)GlcNAc,-0.185
same,glycan array binding signal (z-score),[14],0.023
same,glycan array binding signal (z-score),[15],-0.187
same,glycan array binding signal (z-score),Gal(a1-4)GlcNAc,-0.208
same,glycan array binding signal (z-score),Gal(a1-6)Glc,-0.221
same,glycan array binding signal (z-score),Gal(b1-2)Gal,-0.225
same,glycan array binding signal (z-score),Gal(b1-3)Gal,-0.196
same,glycan array binding signal (z-score),Gal(b1-3)Gal(b1-4)GlcNAc,-0.1
same,glycan array binding signal (z-score),[16],-0.222
same,glycan array binding signal (z-score),Gal(b1-3)GalNAc,-0.176
same,glycan array binding signal (z-score),[17],-0.212
same,glycan array binding signal (z-score),[18],-0.239
same,glycan array binding signal (z-score),Gal(b1-3)GalNAc(b1-3)Gal,-0.198
same,glycan array binding signal (z-score),[19],-0.154
same,glycan array binding signal (z-score),[20],-0.143
same,glycan array binding signal (z-score),[21],-0.2
same,glycan array binding signal (z-score),Gal(b1-3)GlcNAc,-0.213
same,glycan array binding signal (z-score),[22],-0.364
same,glycan array binding signal (z-score),[23],-0.194
same,glycan array binding signal (z-score),Gal(b1-3)GlcNAc(b1-2)Man,-0.189
